Results: PubChem BioAssay AID652106 (National Center for Advancing Translational Sciences (NCATS), 2013)
Out of some 370,000 compounds screened, about 500 (0.14%) were called active. The shares of active, inactive and inconclusive entries below differ from those in the screen. The call rests on the fitted dose curve; in most records, active means well fitted activation curve with a large enough effect; inconclusive means small, poorly fitted or top-dose-only effect; inactive means no such curve, though single readings can be large or run the other way. Potencies of inconclusive entries are left out as doubtful fits.

Assay: qHTS of alpha-syn Inhibitors; further: nearly all actives have a fitted effect of over 65% in size
Details: Yeast expressing alpha-synuclein, BacTiter-Glo, 24 h; Potency: growth rescue unless noted; series mostly up to 46.1 µM
In short: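 Rescue of yeast growth: cells expressing toxic alpha-synuclein, induced in galactose at OD600 0.02, incubated with compound 24 h at 30 C. ATP luminescence quantified growth; inhibitors of toxicity appear as activators.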
Potency means the concentration at half of the fitted maximal effect; tags describe the fitted curve by direction and shape.

| SMILES | Potency |
| --- | --- |
| Cc1nn2c(COc3ccc(NC(=O)c4ccccc4Cl)cc3)nnc2c2ccccc12 | inconclusive [activator, single point] |
| CCOC(=O)c1cc(Br)c(=O)n2ccccc12 | inactive |
| COc1cccc(C2c3[nH]c4ccccc4c3CCN2C(=O)c2ccccc2F)c1OC (centres undefined) | inconclusive [activator, single point] |
| CC(NC(C)c1ccccc1Cl)C(=O)Nc1cccc(S(=O)(=O)N2CCCCC2)c1 (centres undefined) | inactive |
| COc1ccc(-c2cc(C(F)(F)F)nc(N)n2)cc1 | inconclusive [activator, single point] |
| COc1ccc(CCn2cnc3c([nH]c4ccccc43)c2=O)cc1 | inconclusive [activator, single point] |
| Cc1cc2oc(=O)cc(CN3CCCCC3)c2cc1O | inconclusive [activator, single point] |
| CCCn1nnnc1NC(=O)c1ccc2ccccc2c1 | inconclusive [activator, single point] |
| COc1cc2nc(N3CCN(C)CC3)nc(NC(C)C)c2cc1OC | inconclusive [activator, single point] |
| COc1ccc(-c2sc3cc4c(cc3c2C#Cc2ccc(N)cc2)OCO4)cc1 | inconclusive [activator, single point] |
| CC(C)CN(CC(C)C)CC(O)COc1ccccc1Br (centres undefined) | inactive |
| CCCNC(=S)N(Cc1ccccc1)Cc1nc2ccccc2c(=O)[nH]1 | inactive |
| O=C1N/C(=N\N=C\c2ccccn2)SC1Cc1cccc(SC(F)F)c1 (centres undefined) | active: 5.01 µM |
| O=C(C1CCCCC1)N1CCN(c2ccccc2F)CC1 | inconclusive [activator, single point] |
| Cc1cccc(S(=O)(=O)c2c(N)n(-c3ccccc3)c3nc4ccccc4nc23)c1 | inactive |
| C=CCn1c(SCC(=O)N2c3ccccc3Sc3ccccc32)nnc1-c1ccco1 | inconclusive [activator, single point] |
| Cc1c2cnn(CC(=O)N3CCOCC3)c(=O)c2c(C)n1Cc1ccccc1F | inconclusive [activator, single point] |
| COC(=O)c1ccc(SC2CCCCC2)c([N+](=O)[O-])c1 | inconclusive [activator, single point] |
| Cc1cc(NC(=O)CSCC(=O)N2CCN(c3cccc(C)c3C)CC2)no1 | inconclusive [activator, single point] |
| C=CCn1c(O)c(C2=c3ccccc3=NC2=O)c2ccccc21 | inconclusive [activator, partial curve] |
| COc1cccc(C2=Cc3ccc(F)cc3C(CC(C)=O)N2c2ccc(-c3cncnc3)cc2)c1 (centres undefined) | inconclusive [activator, single point] |
| CCc1nc2ccc(C(=O)N(C)C(C)C)cn2c1N(CC)Cc1cccc(Br)c1 | inconclusive [activator, single point] |

| SMILES | Potency |
| --- | --- |
| Cc1nn(-c2ccccc2)c(C)c1/C=N\NS(=O)(=O)c1ccc(Cl)cc1 | inconclusive [activator, single point] |
| COCOc1cccc(CN2CCC2(C)C(=O)Nc2ccc(C)c(O)c2)c1 (centres undefined) | inconclusive [activator, single point] |
| O=S(=O)(NCc1ccccc1Br)c1ccccc1Br | inconclusive [activator, partial curve] |
| Cc1c(Cl)cccc1NC(=O)CCn1cnnn1 | inconclusive [activator, single point] |
| CC(C)CN1C(=O)C(=O)N(CC(=O)Nc2cc(Cl)ccc2Oc2ccccc2)C1=O | inconclusive [activator, single point] |
| COc1ccc(C2CC(c3ccccc3Cl)=NN2c2ccc(S(N)(=O)=O)cc2)cc1 (centres undefined) | inconclusive [activator, single point] |
| O=C(c1ccccc1Cc1ccccc1)N1CCN(S(=O)(=O)c2ccccc2Br)CC1 | inconclusive [activator, single point] |
| CC1=CC(C)(C)N(C(=O)CN2C(=O)c3ccccc3C2=O)c2ccc(C)cc21 | inconclusive [activator, partial curve] |
| CC(CCC(=O)O)C1CC[C@H]2C3CCC4CC(=O)CCC4(C)[C@H]3CC(=O)C12C (some centres undefined) | inconclusive [activator, single point] |
| Clc1cccc(CNc2ccn3nc(-c4cccs4)cc3n2)c1 | inconclusive [activator, single point] |
| O=C(Cn1cnc2c(nnn2Cc2ccc(F)cc2)c1=O)Nc1cccc(F)c1 | inconclusive [activator, single point] |
| COc1cccc(C(=O)c2sc(NC(C)C)nc2N)c1 | inactive |
| CCOc1ccc(C(C(=O)NC2CCCC2)N(CCCO)C(=O)c2ccc(-c3ccccc3)[nH]2)cc1 (centres undefined) | inactive |
| O=C(NCC(c1cccs1)N1CCOCC1)c1cc(F)cc(F)c1 (centres undefined) | inconclusive [activator, single point] |
| COc1ccc(S(=O)(=O)CC(=O)c2cc3cc(Br)ccc3oc2=O)cc1 | inconclusive [activator, single point] |
| CN1OC[C@@H]2CN[C@H](c3cccc(N4CCOCC4)c3)C[C@@H]21 | inconclusive [activator, single point] |
| CS(=O)(=O)c1ccc(NC(=O)C2CCCN(C(=O)c3ccc(Cl)cc3)C2)cc1 (centres undefined) | inconclusive [activator, single point] |
| O=[N+]([O-])c1ccc(NCc2ccncc2)cc1 | inconclusive [activator, single point] |
| O=C(/C=C/c1ccccc1)NC(=S)NNC(=O)c1ccco1 | active: 3.55 µM |
| Cc1cccc(COC[C@H](Cc2ccccc2)N2CCN(C(=O)c3cccc(C)c3)CCC2=O)c1 | inconclusive [activator, single point] |
| NS(=O)(=O)c1ccc(NC(=O)c2ccc(OCC3CCCO3)cc2)cc1 (centres undefined) | inactive |
| COc1cc(/C=C(/C#N)C(=O)NCc2ccccc2)cc(OC)c1OC | inconclusive [activator, single point] |

| SMILES | Potency |
| --- | --- |
| O=C(Nc1nnc(-c2ccccn2)o1)c1ccc(Br)cc1 | inconclusive [activator, single point] |
| CC1=C(C(=O)N(C(C)C)C(C)C)CC(CC(=O)NCc2cccc3ccccc23)C(=O)N1CCC1=CCCCC1 (centres undefined) | inconclusive [activator, single point] |
| Oc1ccc(Cl)c2cccnc12 | inconclusive [activator, single point] |
| CCOc1ccc(NC(=O)CSc2nccn2-c2cccc(C)c2C)cc1 | inconclusive [activator, single point] |
| CC(C)c1ccc(CN2C(=O)c3ccccc3S2(=O)=O)cc1 | inconclusive [activator, partial curve] |
| CN(Cc1ccc(Br)cc1)CC(O)COc1cccc(Br)c1 (centres undefined) | inconclusive [activator, single point] |
| Cc1ccc(-c2csc(N(CCO)CCCn3c(C(F)(F)F)nc4ccccc43)n2)cc1 | inconclusive [activator, single point] |
| COc1ccc(CN2CCNC(=O)C2CC(=O)NCc2csc(C)n2)c(F)c1 (centres undefined) | inconclusive [activator, single point] |
| Cc1nc2c(-c3ccc(F)cc3)c(C)nn2c(C)c1CCC(=O)N1CCC(Cc2ccccc2)CC1 | inconclusive [activator, single point] |
| CC1(C(=O)NC(=S)NNC(=O)c2ccncc2)CCCCC1 | inconclusive [activator, partial curve] |
| CCc1nnc(NC(=O)c2ccc(S(=O)(=O)N(C)Cc3ccccc3)cc2)o1 | inconclusive [activator, partial curve, poor fit] |
| Cc1cc(C)c(C)c(S(=O)(=O)N2CCC(C(=O)N3CCN(c4ccc(F)cc4)CC3)CC2)c1C | inactive |
| COc1ccc(CN2C(=O)C(CC(=O)NCC3CCCCC3)CC(C(=O)N3CCOCC3)=C2C)cc1 (centres undefined) | inactive |
| CCN(C(=O)COC(=O)c1ccccc1NCCO)c1cccc2ccccc12 | inconclusive [activator, single point] |
| OCC[C@H]1C[C@@H](O)[C@H](O)[C@@]2(Cc3ccccc3O2)O1 | inconclusive [activator, single point] |
| COC(=O)C[C@@H]1C=C[C@@H](NS(=O)(=O)c2cccc(OC)c2)[C@@H](CO)O1 | inconclusive [activator, single point] |
| COc1ccc(-c2ccc(CN3C(CC(C)C)C(=O)N(Cc4cn(CC5CCCCC5)nn4)CCS3(=O)=O)cc2)cc1 (centres undefined) | inconclusive [activator, single point] |
| Cc1cccc(NC2=C(C#N)C(=O)NC3(CCCC3)S2)c1 | inconclusive [activator, single point] |
| COc1cc(/C=C\C(=O)OCn2nnc3ccccc3c2=O)cc(OC)c1OC | inconclusive [activator, single point] |
| C/C(=N\NC(=O)C(C)Oc1ccc([N+](=O)[O-])cc1)c1ccccn1 (centres undefined) | inconclusive [activator, single point] |
